Consider 57 compounds from article PMC4336329 (PLoS ONE, 2015).

The whole screen tested about 310,000 compounds, of which about 14,000 (4.5%) showed an effect of 50% or more. The effect is printed as a negative number. The list shows a part of the results.
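Note: peak tail current of the secondary pulse compared with the same well before compound.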

In this assay the target is human ether-à-go-go-related gene (hERG) potassium channel (human, UniProt Q12809). Kind of assay: primary screen, population patch clamp on CHO cells stably expressing hERG.
human ether-à-go-go-related gene (hERG) potassium channel, sequence (Q12809 whole entry, looked up): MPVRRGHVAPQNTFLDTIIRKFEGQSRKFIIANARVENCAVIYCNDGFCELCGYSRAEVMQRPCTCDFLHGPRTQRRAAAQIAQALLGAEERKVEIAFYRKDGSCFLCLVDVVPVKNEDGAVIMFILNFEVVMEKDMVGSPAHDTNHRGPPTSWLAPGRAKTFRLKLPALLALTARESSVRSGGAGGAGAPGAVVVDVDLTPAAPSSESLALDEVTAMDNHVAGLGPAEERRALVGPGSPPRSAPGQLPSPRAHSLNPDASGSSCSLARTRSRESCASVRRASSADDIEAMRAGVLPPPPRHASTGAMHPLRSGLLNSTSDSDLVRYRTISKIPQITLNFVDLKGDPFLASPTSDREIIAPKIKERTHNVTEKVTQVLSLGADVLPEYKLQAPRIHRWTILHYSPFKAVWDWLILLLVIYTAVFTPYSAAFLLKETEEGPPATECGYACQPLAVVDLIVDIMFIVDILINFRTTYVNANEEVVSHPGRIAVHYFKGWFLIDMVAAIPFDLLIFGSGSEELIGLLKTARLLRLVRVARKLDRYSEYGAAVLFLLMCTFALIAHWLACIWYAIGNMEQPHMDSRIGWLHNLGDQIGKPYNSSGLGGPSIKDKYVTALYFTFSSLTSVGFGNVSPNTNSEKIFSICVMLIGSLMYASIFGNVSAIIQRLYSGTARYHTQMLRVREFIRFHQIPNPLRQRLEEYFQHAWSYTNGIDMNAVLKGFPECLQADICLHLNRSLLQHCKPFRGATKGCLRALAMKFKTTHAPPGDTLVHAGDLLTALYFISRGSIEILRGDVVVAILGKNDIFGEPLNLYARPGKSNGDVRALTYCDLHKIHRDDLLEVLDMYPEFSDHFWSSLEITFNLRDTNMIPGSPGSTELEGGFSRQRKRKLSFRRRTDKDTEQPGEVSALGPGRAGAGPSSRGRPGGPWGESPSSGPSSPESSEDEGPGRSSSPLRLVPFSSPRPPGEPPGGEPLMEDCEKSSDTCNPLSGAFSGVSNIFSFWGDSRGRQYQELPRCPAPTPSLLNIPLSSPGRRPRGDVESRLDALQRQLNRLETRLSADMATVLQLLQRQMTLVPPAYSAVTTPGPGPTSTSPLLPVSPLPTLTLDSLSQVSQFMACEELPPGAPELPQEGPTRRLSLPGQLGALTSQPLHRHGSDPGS
For the compound `NS(=O)(=O)c1ccc(CNC(=O)NC2(c3ccccc3)CC2)cc1`, the “hERG current change (%, negative = inhibition) at 10uM” value is listed as 9.76%.

Take `Cc1noc(C)c1CN1C(=O)NC2(CCCCCCC2)C1=O`: the “hERG current change (%, negative = inhibition) at 10uM” value is 0.244%.

Turning to `NC(=O)c1ccc(Nc2ccc([N+](=O)[O-])cc2[N+](=O)[O-])cc1`, the “hERG current change (%, negative = inhibition) at 10uM” value is -39.2%. On to `COc1ccccc1CCC(=O)OCC(=O)Nc1ccc(S(N)(=O)=O)cc1`, for which the “hERG current change (%, negative = inhibition) at 10uM” value is recorded as 15.4%. As to `O=C(NCc1ncc(C(F)(F)F)cc1Cl)Nc1ccccc1`, the “hERG current change (%, negative = inhibition) at 10uM” value is recorded as 3.57%. The same measure for `O=C(CN1CCOCC1)N/N=C/c1ccc(-c2ccc(Br)cc2)o1`: -67.1%; for `CC1CC2(CCCC2)Nc2ccc(F)cc21.Cl` (stereo not drawn): 13.2%; for `CCCN1CCC(NC(=O)C2CCCCC2C(=O)O)CC1` (stereo not drawn): -1.65%. The same measure for `Cc1onc(-c2c(F)cccc2Cl)c1C(=O)OCC(=O)NC1CC1`: 1.98%. With `Cn1cc(S(=O)(=O)Nc2cccc3ccccc23)c(=O)n(C)c1=O`, the “hERG current change (%, negative = inhibition) at 10uM” value is on record as -39.1%. The same measure for `Cc1ccc(S(=O)(=O)NCC(=O)N2CCCCC2)cc1`: 12.5%; for `Cc1cccc(/C=C/C(=O)c2ccc([N+](=O)[O-])o2)c1`: 12.8%. Then `CCN(CC)P(=O)(c1ccccc1)c1c(C)nc2ccccn12` (stereo not drawn), with -3.24%; and `O=C(CSc1nnc(-c2ccco2)n1Cc1ccccc1)OC1CCCCC1`, with -92.1%; and `COc1ccc(NC(=O)CSc2ccccn2)cc1`, with 21.5%. The same measure for `CCC(CC)=N/N=C/c1c(O)n(CC)c2cc(C3=NNC(=O)CC3)ccc12`: 15.5%. With `Cc1cc(NC(=O)c2cccc(S(=O)(=O)N3c4ccccc4CC3C)c2)no1` (stereo not drawn), the “hERG current change (%, negative = inhibition) at 10uM” value was -7.3%. In the case of `CCOc1ccc(S(=O)(=O)N2CCN(Cc3ccccc3)CC2)cc1`, the “hERG current change (%, negative = inhibition) at 10uM” value came to 1.61%. The same measure for `CN(C)/C=C1\C(=O)N(c2ccc(Oc3ccccc3)cc2)CS1=O` (stereo not drawn): -14.4%.

In the case of `COc1ccc(CCNC(=O)Cn2ccc3cc(S(=O)(=O)N4CCCC4)ccc32)cc1OC`, the “hERG current change (%, negative = inhibition) at 10uM” value is -42.9%.

Consider `COC(=O)NCC(c1cccnc1)N1CCN(c2ccccc2F)CC1` (stereo not drawn), for which the “hERG current change (%, negative = inhibition) at 10uM” value worked out at 4.3%. The same measure for `O=C(NCCN1CCN(Cc2ccccc2)CC1)Nc1cc(Cl)cc(Cl)c1`: -75.2%; for `O=C1CCC(C(=O)OCc2c(Cl)cccc2Cl)N1` (stereo not drawn): 6.58%. The same measure for `COc1cccc(C(=O)N2CCOCC2)c1OC`: 16.8%; for `O=C(NNS(=O)(=O)c1ccc([N+](=O)[O-])cc1)c1cnn(-c2ccccc2)c1-n1cccc1`: 10.7%.

`CCc1ccccc1NS(=O)(=O)c1ccc2[nH]cc(C(=O)NCC3CCCO3)c(=O)c2c1` (stereo not drawn): the “hERG current change (%, negative = inhibition) at 10uM” value was found to be 14.3%.

For the compound `Cc1nc(C)n(C(C)CNS(=O)(=O)c2ccc(Cl)cc2)n1` (stereo not drawn), the “hERG current change (%, negative = inhibition) at 10uM” value is given as 13.9%. The same measure for `Cc1cc(N2CCN(c3cccc(C)c3C)CC2)nc(-c2ccccc2)n1`: -10.1%. Take `CN(C)N1C(N)=C(C#N)C(c2ccsc2)C2=C1CC(C)(C)CC2=O` (stereo not drawn): the “hERG current change (%, negative = inhibition) at 10uM” value was -3.13%. The same measure for `CCCC(=O)NC(=S)Nc1ccc(N2CCN(C(=O)c3cccs3)CC2)cc1`: -4.09%; for `COc1ccc(C(=O)c2sc3nc(C)cc(-c4cccs4)c3c2N)cc1OC`: -3.33%. Then `COC(=O)C1CN(C#N)N(c2ccc(Cl)cc2)C12c1ccccc1-c1ccccc12` (stereo not drawn), with 6.03%; and `COC(=O)Nc1nn(Cc2ccccc2F)cc1Br`, with 17.6%; and `CCc1ccc(CN(C)C(=O)c2cc(COc3ccc(-n4cncn4)cc3)on2)cc1`, with -42.5%.

With `CC/C(=N\NC(=S)Nc1cc(C)ccc1C)c1ccc(OC(F)F)cc1`, the “hERG current change (%, negative = inhibition) at 10uM” value was -0.587%.

Regarding `NC(=O)c1cccc(NC(=O)Nc2ccc(Cl)cc2)c1`, the “hERG current change (%, negative = inhibition) at 10uM” value is 20.2%. Then `CCC(C)c1ccccc1NC(=O)c1cccnc1` (stereo not drawn), with 12.5%; and `O=C(/C=C/c1ccc(OC(F)F)cc1)OCC(=O)N1CCC(c2ccccc2)=N1`, with 17.2%; and `CCn1c(C)[n+](CC(O)COCC2CC=CCC2)c2ccccc21.[I-]` (stereo not drawn), with 2.22%. The same measure for `COc1cccc2cc(-c3nnc(SCC(=O)Nc4nc(C)cs4)n3C)oc12`: 6.56%. Then `O=C(c1ccccc1)N1CCCC(C(=O)N2CCCCC2)C1` (stereo not drawn), with 4.5%; and `Cc1cccc(NC(=O)c2cc[n+]([O-])cc2)c1C`, with 23.6%. On to `CCN(CCCNC(=O)Cn1cc2c(n1)CCCC2)c1cccc(C)c1`, for which the “hERG current change (%, negative = inhibition) at 10uM” value is -7.68%. With `Cc1ccc(NC(=O)C2=C(C(=O)O)CCCC2)cc1Br`, the “hERG current change (%, negative = inhibition) at 10uM” value was 18%. Consider `O=C(N/N=C/c1ccc([N+](=O)[O-])cc1)c1[nH]ncc1Br`, for which the “hERG current change (%, negative = inhibition) at 10uM” value is listed as 12.6%. For `Cc1cc(OCC(=O)Nc2ccccc2F)nc(C(C)C)n1`, the “hERG current change (%, negative = inhibition) at 10uM” value is 5.67%. Then `Cc1oc(-c2ccc(Cl)cc2)nc1CS(=O)CC(=O)NCCN1CCCC1` (stereo not drawn), with -18.2%.

For `CCC1(c2ccc(-c3ccccc3)cc2)C(=O)NC(=O)NC1=O`, the “hERG current change (%, negative = inhibition) at 10uM” value worked out at 13.3%. The same measure for `Oc1cccc(-c2nc3c4c(ncn3n2)-c2ccccc2CC42CCCC2)c1`: -7.64%; for `CCOc1cc2[nH]c(=O)n(CCCC(=O)N(C)Cc3ccccc3)c(=O)c2cc1OCC`: -1.74%; for `CCOCCCNC(=O)c1oc2ccc3c(c2c1C)C(O)CC(C)(C)O3` (stereo not drawn): 16.1%. `O=C1CCCCN1CCC(=O)N1CCCC(N2CCN(c3ccccc3)CC2)C1` (stereo not drawn): the “hERG current change (%, negative = inhibition) at 10uM” value is given as -47.1%. With `O=C(CSc1ccccn1)Nc1ccc2c(c1)OCO2`, the “hERG current change (%, negative = inhibition) at 10uM” value came to 4.65%. Then `COc1ccccc1/C=C(/C(=O)OCC(=O)Nc1ccccc1C)c1ccccc1`, with 9.14%; and `O=C(N=C1SCC(=O)N1c1ccccc1)c1ccco1`, with -43.7%. On to `O=C(O)C1=C(C(=O)Nc2cc(C(F)(F)F)ccc2Cl)CCCC1`, for which the “hERG current change (%, negative = inhibition) at 10uM” value stood at 27%. Then `NC(=O)C1CCN(C(=O)CN2CCCc3ccccc32)CC1`, with 22.6%.
